In all, about 310,000 compounds went through this assay and about 14,000 (4.5%) showed an effect of 50% or more. Effects have a minus sign here. This is one part of the list.
Molecular target: human ether-à-go-go-related gene (hERG) potassium channel (human, UniProt Q12809)
Assay: primary screen, population patch clamp on CHO cells stably expressing hERG
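Note: peak tail current of the secondary pulse compared with the same well before compound.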

Sequence of human ether-à-go-go-related gene (hERG) potassium channel (Q12809 whole entry, looked up): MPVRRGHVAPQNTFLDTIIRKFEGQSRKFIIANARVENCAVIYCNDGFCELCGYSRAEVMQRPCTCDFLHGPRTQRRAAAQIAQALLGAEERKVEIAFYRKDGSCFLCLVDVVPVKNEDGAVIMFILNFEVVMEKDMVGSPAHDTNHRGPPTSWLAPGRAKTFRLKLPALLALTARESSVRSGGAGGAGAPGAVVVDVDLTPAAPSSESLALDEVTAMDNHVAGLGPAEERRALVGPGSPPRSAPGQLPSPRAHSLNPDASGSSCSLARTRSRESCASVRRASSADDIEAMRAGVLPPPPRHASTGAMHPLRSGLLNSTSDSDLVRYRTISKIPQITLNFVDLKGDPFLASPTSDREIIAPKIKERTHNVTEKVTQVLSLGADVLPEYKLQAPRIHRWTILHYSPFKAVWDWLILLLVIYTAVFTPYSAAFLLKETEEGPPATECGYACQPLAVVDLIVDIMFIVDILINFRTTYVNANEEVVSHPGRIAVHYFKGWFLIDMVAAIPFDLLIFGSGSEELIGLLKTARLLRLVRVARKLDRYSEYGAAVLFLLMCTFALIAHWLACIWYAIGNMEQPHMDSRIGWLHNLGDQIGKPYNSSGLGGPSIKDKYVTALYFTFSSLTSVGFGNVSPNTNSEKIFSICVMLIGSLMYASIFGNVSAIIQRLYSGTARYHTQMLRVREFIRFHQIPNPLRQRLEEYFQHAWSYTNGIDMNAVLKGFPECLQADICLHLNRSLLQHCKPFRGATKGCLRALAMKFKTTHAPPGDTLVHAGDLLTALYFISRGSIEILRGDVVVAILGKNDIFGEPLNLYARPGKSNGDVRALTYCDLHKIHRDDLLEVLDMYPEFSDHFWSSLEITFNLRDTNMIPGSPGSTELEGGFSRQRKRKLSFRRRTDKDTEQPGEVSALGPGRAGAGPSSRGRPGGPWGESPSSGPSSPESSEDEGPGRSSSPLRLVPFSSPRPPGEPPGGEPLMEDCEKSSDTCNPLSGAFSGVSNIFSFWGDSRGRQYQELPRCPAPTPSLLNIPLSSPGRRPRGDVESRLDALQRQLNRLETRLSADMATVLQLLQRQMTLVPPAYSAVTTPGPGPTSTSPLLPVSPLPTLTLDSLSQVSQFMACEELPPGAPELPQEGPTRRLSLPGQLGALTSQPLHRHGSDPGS

Row | SMILES | hERG current change (%, negative = inhibition) at 10uM
1 | Cc1ccc(C)[n+](CC(=O)c2ccc(-c3ccccc3)cc2)c1.[Cl-] | -27%
2 | CC(=O)c1ccc(OCC(O)CN2CCOCC2)cc1.Cl (stereo not drawn) | 9.11%
3 | COc1ccc(C(=O)NC(=S)NNC(=O)c2ccco2)cc1 | 22%
4 | CCOC(=O)Cc1nnc(Nc2ccc(C)cc2C)c2ccccc12 | -2.76%
5 | CN(C)/C=C1/NC(=S)NC1=O | 0.253%
6 | O=C(CC1Nc2ccccc2NC1=O)NCCc1ccccc1 (stereo not drawn) | -3.96%
7 | O=S(=O)(Nc1ncnc2c1oc1ccccc12)c1ccc(Cl)s1 | 16.2%
8 | Cc1cccc(C)c1OCC(O)Cn1ccnc1C (stereo not drawn) | -8.31%
9 | Cc1c(C)c2ccc(OCC(=O)Nc3ccccn3)cc2oc1=O | 4.53%
10 | O=C(O)CCOc1ccc2c(c1)OCCO2 | 3.58%
11 | COc1ccc(-c2nc(CSCC(=O)NC3CCCc4ccccc43)c(C)o2)cc1 (stereo not drawn) | 5.36%
12 | OCC1(Cc2ccccc2C(F)(F)F)CCN(Cc2ccc3c(c2)CCO3)CC1 | -28.7%
13 | CN=C(SCc1ccccc1)c1c(O)n(C)c(=O)n(C)c1=O | 4.22%
14 | COc1ccc(C)cc1NC(=O)C(Sc1nnc(Nc2cc(C)ccc2OC)s1)c1ccccc1 (stereo not drawn) | 0.631%
15 | COC(C(=O)N1CCC(n2nccc2NC(=O)C2CC2)CC1)c1ccccc1 (stereo not drawn) | 9.4%
16 | Cc1ccc(OCC(=O)Nc2cc(C)on2)c([N+](=O)[O-])n1 | -1.57%
17 | NC(=NCCc1ccccc1)NS(=O)(=O)c1ccc(F)cc1 | 18.5%
18 | Cc1cc(C)c(C)c(S(=O)(=O)N2CCC(C(=O)N3CCCC3)CC2)c1C | -25.8%
19 | CCOc1ccc(NC(=S)c2ccncc2)cc1 | 11.8%
20 | C/C(=N\NC(=O)CC1N=C(Cc2ccccc2)NNC1=O)c1ccc(Cl)cc1Cl (stereo not drawn) | -8.9%
21 | Cc1c(Cl)c([N+](=O)[O-])nn1CCCC(=O)NC(C)c1ccccc1 (stereo not drawn) | -13.5%
22 | CC1CN(C(=O)CCC(=O)NCc2ccc(Cl)cc2)c2ccccc2S1 (stereo not drawn) | -36.8%

Row | SMILES | hERG current change (%, negative = inhibition) at 10uM
23 | Cc1ccc(C(CCN)c2ccco2)cc1 (stereo not drawn) | -2.63%
24 | Cc1ccc(SCCC(=O)Nc2ccccc2C(=O)NC2CCCCC2)cc1 | 10.8%
25 | Cc1ccc(OCCN2C(=O)c3ccccc3C2=O)c([N+](=O)[O-])c1 | 0.511%
26 | Cc1noc(C)c1CSc1nnnn1-c1ccc(Cl)cc1 | -20.5%
27 | COC(=O)C1=C(c2ccc(F)cc2OCc2ccccc2)C[C@@H]2CC[C@H]1N2C(=O)NCCCOC(C)C | -12.9%
28 | COc1ccc2[nH]c(=O)c(CN(CC3CCCO3)C(=S)Nc3ccccc3)cc2c1 (stereo not drawn) | -14.6%
29 | Cc1ccc(OCCC(=O)OCC(=O)NCCc2ccc(Cl)cc2)cc1 | 20.8%
30 | Cc1cc(C)c(C#N)c(SCC2COc3ccccc3O2)n1 (stereo not drawn) | 14.6%
31 | N#CCC(=O)NC1CCC(CC2CCC(NC(=O)CC#N)CC2)CC1 (stereo not drawn) | 16.2%
32 | Cc1ccccc1Nc1nc(N)nc(CSc2nnnn2C)n1 | 12%
33 | COc1cc2c(cc1OC)C(C)N(C(=O)CCNC(=O)c1ccccc1)CC2 (stereo not drawn) | 15.1%
34 | O=C(O)c1ccc(C(=O)Nc2ccc(F)cc2)cc1 | 13.5%
35 | COc1cccc(NC(=O)Cn2nc(Cc3cccnc3)c3ccccc3c2=O)c1 | -34.6%
36 | Cc1noc(C)c1C(=O)OCC(=O)NC(=O)NC12CC3CC(CC(C3)C1)C2 | 8.78%
37 | CCCCn1c(O)c(C(CC)=NCc2ccc3c(c2)OCO3)c(=O)[nH]c1=O | -46.4%
38 | COc1ccc(-c2nnc(SCC(=O)N3CCCCC3)o2)cc1OC | -8.03%
39 | CCn1c(SCC(=O)NCc2ccco2)nnc1-c1cccs1 | -8.86%
40 | CC1=CS/C(=C(/C#N)C(=O)NCc2ccco2)N1c1ccccc1 | 1.79%
41 | COc1ccc(S(=O)(=O)N(C(=O)c2ccco2)c2cc3sc(=O)oc3c3ccccc23)cc1 | 12.3%
42 | COC(=O)c1ccccc1NC(=O)C1(S(=O)(=O)c2ccc(Cl)cc2)CC1 | -17.9%
43 | Nc1nc(SCC(=O)N2CCCCC2)[nH]c(=O)c1NC(=O)c1ccccc1F | 19.7%
44 | O=c1c2[nH]cnc2n(-c2cccc(Br)c2)c(=O)n1Cc1ccccc1 | -19.3%

Row | SMILES | hERG current change (%, negative = inhibition) at 10uM
45 | COCCNC(=O)C(=O)N/N=C/c1cccs1 | 21.1%
46 | Oc1ccc(Cc2ncc(C(F)(F)F)cc2Cl)cc1 | -15.4%
47 | CCOC(=O)c1c(NC(=O)COC(=O)CCS(=O)(=O)c2ccc(C)cc2)sc(C)c1C | -12%
48 | NC(=O)Cn1cc(/C=N/NC(=O)c2ccc(Cn3cc(Cl)cn3)o2)c(-c2ccccc2)n1 | 6.88%
49 | Cc1ccc(OCCC(=O)OCC(=O)c2c(N)n(CC(C)C)c(=O)n(C)c2=O)cc1 | -71.9%
50 | O=c1cc(CSc2nnnn2-c2ccccc2)nc(Nc2ccc(F)cc2)[nH]1 | -4.69%
51 | Cc1c(NC(=O)CN2CC(C)OC(C)C2)c(=O)n(-c2ccccc2)n1C.O=C(O)C(=O)O (stereo not drawn) | 2.8%
52 | Cc1cc(Br)ccc1NC(=O)CN(C)C(=O)CSC(=S)N1CCCC1 | -15.1%
53 | COc1cc(OC)nc(Oc2cc(/C=N/O)ccc2OC)n1 | 0.516%
54 | COc1ccc(NC(=O)CC2SC3=NCCN3C2=O)cc1 (stereo not drawn) | 29.5%
55 | COc1cc(CC(=O)Nc2nc(-c3ccc(F)c(F)c3)cs2)cc(OC)c1OC | 5.01%
56 | CCC(=O)N1CCCc2cc(S(=O)(=O)N3CCCc4ccccc43)ccc21 | -23.6%
57 | COc1cc(NC(=S)NC(=O)c2ccccc2F)ccc1NC(=O)c1ccco1 | 12.3%
58 | Cc1ccc(C)c(-c2csc(NC(=O)c3c(C)noc3C)n2)c1 | -4.93%
59 | Cc1ccc(-c2nnc3ccc(SCC(=O)NCc4ccco4)nn23)cc1 | -6.59%
60 | O=C(CSc1ncn[nH]1)NCc1ccccc1 | -6.75%
61 | COP(=S)(OC)c1c(C)nn(CCC#N)c1NC(=O)c1ccc(Cl)cc1 | 15.3%
62 | COc1ccc(OC)c(NC(=O)CNC(=O)Cn2c(C)cc3ccccc3c2=O)c1 | -3.8%
63 | O=C(c1ccccc1)c1nn(-c2ccc(Cl)cc2)c(=O)cc1C(F)(F)F | 4.89%
64 | O=C1CN(C(=O)c2cc([N+](=O)[O-])ccc2Cl)C(c2ccccc2)c2cc(F)ccc2N1 (stereo not drawn) | -45.8%
65 | COc1ccc(C(=O)c2ccc([N+](=O)[O-])cc2)cc1S(=O)(=O)N1CCC(C(=O)O)CC1 | 5.12%
66 | COCCn1c(SCC(=O)Nc2nnc(C)s2)nnc1-c1ccncc1 | -0.996%

Row | SMILES | hERG current change (%, negative = inhibition) at 10uM
67 | COc1ccc(NC(=O)CCNS(=O)(=O)c2ccc(NC(C)=O)cc2)cc1Cl | 22.8%
68 | CC(NC(=O)c1noc2c1CCCC2)c1ccccc1 (stereo not drawn) | -9.85%
69 | O=C(Nc1cccc(S(=O)(=O)NC2=NCCCCC2)c1)C1COc2ccccc2O1 (stereo not drawn) | -13.7%
70 | CCc1cc2c(=O)n(CC(=O)NC3CCCCC3)cnc2s1 | 4.86%
71 | c1cc(-c2cc3cc(N4CCOCC4)ccc3o2)cs1 | 7.74%
72 | COc1ccc(C(CNC(=O)c2ccc(NS(=O)(=O)c3ccc(F)c(C)c3)cc2)N(C)C)cc1 (stereo not drawn) | -25.8%
73 | Cc1cc(C)cc(N(CC(=O)N/N=C/c2ccncc2)S(=O)(=O)c2ccccc2)c1 | -76.9%
74 | C=CCN(CC(=O)NCc1ccccc1)C(=O)c1csnn1 | 7.78%
75 | CN(C)c1ccc(CN2CC=C(c3ccc(F)cc3)CC2)cc1 | -69.9%
76 | COc1ccc(OC)c(Nc2ncnc3c2cnn3-c2cccc(C)c2)c1 | 9.08%
77 | Oc1cccc2cccnc12 | 2.7%
78 | Cc1ccc(Cn2c(Sc3nnc(C)s3)nc3c2c(=O)[nH]c(=O)n3C)cc1 | -46.8%
79 | CCN(CC)C(=O)c1ccc(NC(=O)CN2CCc3cc(OC)c(OC)cc3C2)cc1 | 16%
80 | Cc1sc2nc(CSCC(=O)Nc3cc(F)ccc3F)[nH]c(=O)c2c1C | 6.42%
81 | Cc1cc(N2CC(C)OC(C)C2)nc(C(C)C)n1 (stereo not drawn) | -6.44%
82 | C[C@@H]1CC=C[C@H]2[C@H]1C(=O)N(Cc1ccccc1)[C@H]2c1ccc(F)c(-c2ccc(N(C)C)cc2)c1 | 5.21%
83 | O=C1C(=O)N(Cc2cccnc2)C(c2cccc(F)c2)/C1=C(/O)c1ccc2c(c1)OCO2 (stereo not drawn) | 21.4%
84 | O=C(Nc1nc2ccsc2c(=O)s1)c1ccc(F)cc1 | -5.72%
85 | CCCOc1ccc(N2C(=O)CC(SCCN)C2=O)cc1.Cl (stereo not drawn) | -4.66%
86 | Cc1ccn(CC(=O)NC2CC(C)(C)Cc3c2cnn3-c2ccc(F)cc2)n1 (stereo not drawn) | -15%
87 | O=c1cc(N2CCN(c3cccc(Cl)c3)CC2)[nH]c(=O)n1C1CCCCC1 | 4.83%

Reference: article PMC4336329 (PLoS ONE, 2015)
